Test results as given in PubChem BioAssay AID445 (National Center for Advancing Translational Sciences (NCATS), 2006).
The campaign covered roughly 110,000 compounds. About 40 (0.04%) were called active. The inconclusive results got no clear call from the source; some entries with a clear call stand among them for comparison. Calls come from the whole dose curve; as a rule, active = well fitted curve in the direction sought with a large enough effect in the signal ratio (not every such curve was filed as active); inconclusive = small, poorly fitted or top-dose-only effect, or a change in a side signal; inactive = flat fitted curve, though single readings scatter; the % refers to the signal ratio. A potency beside an inconclusive call is a rough fit, not a confirmed value.
Potency is the fitted concentration of half-maximal effect.

Assay: IkB Signaling;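 for IkBa stabilization activation: 0% = basal untreated cells and 100% = reference inhibitor full response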
Conditions: ABC-DLBCL IkBa-CBG/CBR dual luciferase ratio (green luciferase fused to IkBa over red control in OCI-Ly3 lymphoma cells), 4 h; IkBa stabilization activation: at 57.1 µM (top of the series), scaled: untreated 0%, proteasome inhibitor 100% unless noted
How it was run: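 Luminescence ratio of IκBα-fused green versus native red beetle luciferase in OCI-Ly3 cells, 4 h post-doxycycline with compound; red signal alone, scaled from basal (0%) to zero light (-100%), flagged nonspecific or cytotoxic effects.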
In the case of `O=C(CCCCCn1c(=O)c2sccc2n(CC(=O)Nc2ccccc2F)c1=O)NCc1ccc2c(c1)OCO2`, the IkBa stabilization activation is reported as inconclusive: 0.581% [signal inhibitor].
With `COc1cc(CN(C(=O)COc2ccccc2)c2ccccn2)cc(OC)c1OC` the IkBa stabilization activation was “inactive”.
For `CC(C)Cc1ccc(S(=O)(=O)N2CCN(C(=O)c3ccco3)CC2)cc1`, the IkBa stabilization activation was inconclusive: 3.73% [signal inhibitor].
With `O=S(=O)(NCCNC/C=C\c1ccc(Br)cc1)c1cccc2cnccc12` the IkBa stabilization activation was “inactive”.
With `COC(=O)c1ccc(N2C(=O)CC(Sc3n[nH]c(C)n3)C2=O)cc1` (stereo not given) the IkBa stabilization activation was inconclusive: 14.2% [signal inhibitor].
For `Nc1c(S(=O)(=O)c2cccc(Cl)c2)c2nc3ccccc3nc2n1/N=C/c1ccc(O)c(O)c1`, the IkBa stabilization activation was inconclusive: -2.47% [signal inhibitor].
In the case of `Cn1c(=O)oc2cc(S(=O)(=O)CCC(=O)NCc3ccc(Cl)cc3)ccc21`, the IkBa stabilization activation is reported as inconclusive: -0.503% [signal inhibitor].
For `Cc1nn(C)c(C)c1CNC(=O)c1nn2c(c1Cl)NC(c1cccs1)CC2C(F)(F)F` (stereo not given), the IkBa stabilization activation was inconclusive: -0.494% [signal inhibitor].
For `COc1ccc(-c2cn3nc(SCC(=O)Nc4cccc(C)c4C)ccc3n2)cc1`, the IkBa stabilization activation was “inactive”.
For `Cc1ccc(NC(=O)N2CC=C(c3c[nH]c4ccccc34)CC2)cc1Cl`, the IkBa stabilization activation was inconclusive: 1.52% [signal inhibitor].
In the case of `CC(=O)N1CCC2(CC1)C(C#N)=C(N)Oc1c2sc2nc(C)cc(C)c12`, the IkBa stabilization activation is reported as “inactive”.
For `Cc1ccc(NS(=O)(=O)c2ccc(-n3cccn3)cc2)c(Br)c1`, the IkBa stabilization activation was inconclusive: 4.39% [signal inhibitor].
With `COc1ccc(C(=O)Nc2cc3c(cc2C#N)OCO3)cc1S(=O)(=O)N1CCN(C)CC1` the IkBa stabilization activation was “inactive”.
In the case of `COc1ccc(CC(=O)Nc2nccs2)cc1OC`, the IkBa stabilization activation is reported as inconclusive: 6.37% [signal inhibitor].
In the case of `CCOc1ccccc1C(=O)Nc1cccc(-c2nc3ccccc3s2)c1`, the IkBa stabilization activation is reported as inconclusive: -2.09% [signal inhibitor].
For `COc1ccc(-c2cn3c(n2)sc2cc(C(=O)NCCc4ccccc4)ccc23)cc1`, the IkBa stabilization activation was inconclusive: -0.0502% [signal inhibitor].
In the case of `Cc1cccc2sc(NC(=O)CNS(=O)(=O)c3ccc(Br)s3)nc12`, the Potency is reported as inconclusive: 31.6 µM [rising, partial curve].
For `COc1ccccc1/C=C/c1nc(C#N)c(NCc2ccccc2)o1`, the IkBa stabilization activation was “inactive”.
For `O=c1cnc2cnc(Oc3ccccc3)nc2n1Cc1cccs1`, the IkBa stabilization activation was inactive: -3.69% [at 11.4 µM, scaled: untreated 0%, proteasome inhibitor 100%].
For `Cc1ccc(C)c(NC(=O)c2cnc(N3CCCC3)nc2C)c1`, the IkBa stabilization activation was “inactive”.
In the case of `O=C(OCc1cc(=O)n2nc(C3CC3)sc2n1)c1cccc(NC(=O)c2ccccc2Cl)c1`, the IkBa stabilization activation is reported as inconclusive: 18.3% [signal inhibitor].
In the case of `COc1cccc(NC(=O)Cn2c(SCC(=O)N3CCOCC3)nc3ccccc32)c1`, the IkBa stabilization activation is reported as “inactive”.
In the case of `COc1ccc(-n2ncc(C(=O)NCc3cccs3)c2C2CCN(C(=O)OC(C)(C)C)CC2)cc1`, the IkBa stabilization activation is reported as inconclusive: 2.73% [signal inhibitor].
With `COc1ccc(-c2nnc3sc(C(C)N4C(=O)c5ccccc5C4=O)nn23)cc1` (stereo not given) the IkBa stabilization activation was “inactive”.
In the case of `CCc1ccccc1N(CC)C(=O)c1cc2c(s1)-c1ccccc1SC2`, the IkBa stabilization activation is reported as inconclusive: 0.582% [signal inhibitor].
With `O=C(Cc1ccc(Cl)cc1)NC1CC(=O)N(c2ccc3c(c2)OCCO3)C1` (stereo not given) the IkBa stabilization activation was “inactive”.
In the case of `O=C(Nc1ccncc1)c1c(F)cccc1F`, the IkBa stabilization activation is reported as inconclusive: 2.04% [signal inhibitor].
With `Cn1c(SCc2ccc(F)cc2)nc2ccc(C(=O)NCc3cccc(Cl)c3)cc21` the IkBa stabilization activation was inconclusive: -0.617% [signal inhibitor].
For `COc1ccc2c(CNC3CCC(C)CC3)c(C(=O)O)n(Cc3ccc(F)cc3)c2c1` (stereo not given), the IkBa stabilization activation was inconclusive: 1.35% [signal inhibitor].
With `Cc1ccc(C(=O)NCCc2csc(-c3cccc(F)c3)n2)cc1C` the IkBa stabilization activation was inconclusive: 1.97% [signal inhibitor].
With `COc1ccc(-c2noc(CN(C(=O)c3ccc(C)cc3C)C(C)C)n2)cc1` the IkBa stabilization activation was inconclusive: -1.26% [signal inhibitor].
With `CCOC(=O)c1ccccc1NC(=O)CSc1ccc(-c2sc(C)nc2C)nn1` the IkBa stabilization activation was “inactive”.
For `CCN(C(=O)c1c(C)oc2ncnc(N3CCCCC3)c12)c1cc(C)ccc1C`, the IkBa stabilization activation was inconclusive: 2.38% [signal inhibitor].
For `CCOC(=O)c1cnc2c(ccc3ccccc32)c1Nc1ccccc1O`, the IkBa stabilization activation was inconclusive: 9.06% [signal inhibitor].
In the case of `COc1ccccc1NC(=O)CSc1nnc(-c2ccoc2C)n1CCc1ccccc1`, the IkBa stabilization activation is reported as inconclusive: 7.4% [signal inhibitor].
In the case of `Cc1cccc(Cn2c(CN3CCC(C(=O)NC(C)C)CC3)cc3ccccc32)c1`, the IkBa stabilization activation is reported as inconclusive: 2.14% [signal inhibitor].
For `Cc1ccc(NC(=O)CSCc2cc(=O)c3ccccc3[nH]2)c(C)c1`, the IkBa stabilization activation was inconclusive: 3.23% [signal inhibitor].
In the case of `COc1ccc(C2C(C(=O)Nc3ccccc3)=C(C)Nc3nc(-c4ccc(Cl)cc4)nn32)cc1` (stereo not given), the IkBa stabilization activation is reported as “inactive”.
With `COc1cccc(-c2nc(CS(=O)CC(=O)NCc3ccccc3Cl)c(C)o2)c1` (stereo not given) the IkBa stabilization activation was “inactive”.
With `Cn1c(=O)c2c(SCc3cccnc3)nc(CC(C)(C)C)nc2n(C)c1=O` the IkBa stabilization activation was inconclusive: 10.5% [signal inhibitor].
For `COc1ccc(Oc2ncc3nc(C)c(=O)n(Cc4cccc(OC)c4)c3n2)cc1`, the IkBa stabilization activation was inactive: 2.4% [at 11.4 µM, scaled: untreated 0%, proteasome inhibitor 100%].
In the case of `COc1ccc(-c2cc(C(=O)NCCN3CCOCC3)c3ccccc3n2)cc1`, the IkBa stabilization activation is reported as “inactive”.
For `COc1ccc(CNC(=O)c2cc(-c3ccccc3O)n[nH]2)cc1`, the IkBa stabilization activation was inconclusive: 11.6% [signal inhibitor].
In the case of `Cc1cccc(Nc2nc(-c3ccccc3)nc3ccccc23)c1`, the IkBa stabilization activation is reported as inconclusive: -5.94% [signal inhibitor].
In the case of `CCOc1ccc(-c2cn3c(n2)sc2cc(C(=O)NC(C)C45CC6CC(CC(C6)C4)C5)ccc23)cc1` (stereo not given), the IkBa stabilization activation is reported as “inactive”.
